Experimental data published in the RNAGym collection of RNA variant scans (doi:10.1073/pnas.2313332121).
Variants at the background level are over-represented here.

B1: TPR 5TU (parent)
chain: GGAUCUUCUCGAUCUAACAAAAAAGACAAAUCUGCCACAAAGCUUGAGAGCAUCUUCGGAUGCAGAGGCGGCAGCCUUCGGUGGCGCGAUAGCGCCAACGUUCUCAACUAUGACACGCAAAACGCGUGCUCCGUUGAAUGGAGUUUAUCAUG

Variants of: B1
Experiment: polymerase ribozyme fitness, log enrichment relative to wild type (log ratio); higher = more active; in vitro selection for triplet polymerase activity
Outline: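 For each subunit of a heterodimeric triplet polymerase ribozyme, a mutant library was built by PCR and transcribed, then taken through a single in vitro selection round in triplicate. Selection involved annealing to a biotinylated primer, the partner subunit and triplets, incubation frozen at −7 °C, gel excision of extended constructs, capture on streptavidin beads and RT-PCR. Genotypes were retained after Illumina sequencing of inputs and outputs only with ≥10 input reads and ≥1 read in each output. Fitness is defined as the logarithm of a genotype's enrichment relative to wild-type enrichment, using inverse-variance-weighted averages across replicates, with the logarithm taken to base 2.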

| Variant | polymerase ribozyme fitness (log ratio) |
| --- | --- |
| C76U A91U U145A | ≤ -4.2 |
| G74U G83C C105G | ≤ -4.2 |
| A73G C99A G141C | ≤ -4.2 |
| A73G C79U A91U G94A G128U | ≤ -4.2 |
| A73C C99U C149U | ≤ -4.2 |
| C76G G83C G92U C95G A113C A121U A137C | ≤ -4.2 |
| G74A C79A G84A | ≤ -4.2 |
| C76A C87U G92C | -2.48 |
| G71U C95U U104G A107G C118U | ≤ -4.2 |
| G74A C114U | -3.85 |
| A73G G84A A107G | ≤ -4.2 |
| C75A G92A C103U A119U U134G G141A | ≤ -4.2 |
| A73G A98G U146G | -1.02 |
| G74A A91G A138U | ≤ -4.2 |
| C75A A142U | ≤ -4.2 |
| G74A U82A G83C | ≤ -4.2 |
| C75A C93G G141C | ≤ -4.2 |
| A73U G84C C116A | -2.63 |
| A73U A91U A106C G136C | ≤ -4.2 |
| C76A A91U C125U G126C G143C | ≤ -4.2 |
| C76G G92U | ≤ -4.2 |

| Variant | polymerase ribozyme fitness (log ratio) |
| --- | --- |
| C76G G92A | ≤ -4.2 |
| G74A U127C A142G | ≤ -4.2 |
| G74A G88C C125A | ≤ -4.2 |
| C75G G92U | -2.52 |
| C76A C87G C103A G126A | ≤ -4.2 |
| G74U G92A C131A G143A | ≤ -4.2 |
| G71U A91U C125G | ≤ -4.2 |
| C76G U104G | ≤ -4.2 |
| C76U C79G A89C C96U A97C A115G | ≤ -4.2 |
| C76G A91U A115U | ≤ -4.2 |
| G71U C85G U134G U139G | ≤ -4.2 |
| C72U G81U G92C U111C | ≤ -4.2 |
| C72A C96A G117C | ≤ -4.2 |
| A73G C87U A107U C114U G141A U145A | ≤ -4.2 |
| C75G C96U | -3.61 |
| C75G C96A | -3.52 |
| C75G A91U | ≤ -4.2 |
| C75U G92C | -1.11 |
| A73U C76A G84A G92U G152C | ≤ -4.2 |
| C76G U101A A110U C118U G124A | ≤ -4.2 |
| C76G G86U U109G G141U | ≤ -4.2 |

| Variant | polymerase ribozyme fitness (log ratio) |
| --- | --- |
| G71A G128A | ≤ -4.2 |
| G74A U77A C87G | ≤ -4.2 |
| C76A C85G C87U G141C A142C | ≤ -4.2 |
| A73U U82A C95U | -1.04 |
| C76G C85A C108U G143A | ≤ -4.2 |
| C75G G81C A89U | ≤ -4.2 |
| A73U G81A G83C C118U A120U U134G | ≤ -4.2 |
| C75G G84A A107U A121U U151C | ≤ -4.2 |
| C75A A106U | ≤ -4.2 |
| G71C G84U A91C A106G U144A | ≤ -4.2 |
| G71U C85A G92U G143C | ≤ -4.2 |
| C75A C87A G94A C96A G141C | ≤ -4.2 |
| C76G U144G U146A C149U | ≤ -4.2 |
| C76A G143U | -3.02 |
| C75U G83C C99U G117A A121U A138G | ≤ -4.2 |
| G74C G83A A106C C129G A142C | ≤ -4.2 |
| C76G A106G G133A | ≤ -4.2 |
| C72A C85A C103G G141C | ≤ -4.2 |
| A73G G86A C87G G88U C116U C118A G141C | ≤ -4.2 |
| C76U A121U | 0.67 |
| C76A U82G U146A | -0.356 |

| Variant | polymerase ribozyme fitness (log ratio) |
| --- | --- |
| A73C | -2.13 |
| A73U | -0.424 |
| C72U U104G A106G U144A | -4.01 |
| A73C G92U | ≤ -4.2 |
| A73C G92C | -3.64 |
| C75A C79G | ≤ -4.2 |
| C76U C93G G124A C132A | ≤ -4.2 |
| C72U U90C A122G G136A C149G | ≤ -4.2 |
| C76A U82G | -1.94 |
| G71C C87U U104C C149U | ≤ -4.2 |
| G74U A107G U134A G141U | ≤ -4.2 |
| A73G C85U A138G | ≤ -4.2 |
| C75A U135G | ≤ -4.2 |
| A73G G83U A97C C105A A106G U127A G128U | ≤ -4.2 |
| G71U A107U G143U | ≤ -4.2 |
| A73G G74A U127G A138U U146G | ≤ -4.2 |
| G71C G117U C149U | ≤ -4.2 |
| G74A C75A G92A G133U G140U | ≤ -4.2 |
| C76A C93G A137C G141U U145G | ≤ -4.2 |
| C72A A91G | ≤ -4.2 |
| A73U G83C C123G | -2.93 |
